Article PMC12040169 (PLOS Biology, 2025)
The other results are listed elsewhere or left out.

Tested on: T1, C. trachomatis L2/434/Bu expressing GFP (CTL2-GFP)
T1 construct: L2/434/Bu GFP intracellular growth in HeLa cells
Set-up: species or system HeLa; C. trachomatis total inclusion area by high-content imaging, normalised to DMSO
Conditions: total inclusion area; 28.5 h, 10 µM; inhibitor
How it was run: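 After bulk GFP and resorufin fluorescence reads, cells were fixed, stained with Hoechst and imaged by high-content microscopy. Inclusion area and number (GFP) stood in for chlamydial growth, nuclei count (Hoechst) for host cell viability. MICs were derived as for the bulk readout.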

SMILES | % of control remaining
CC1=CC(C)C2(COC(=O)Nc3ccccc3)COC(c3cccnc3)C1C2C (stereo not shown) [CBK262844] | 69.7626
COC(=O)CCCC(=O)n1ccn(-c2cccc(C(F)(F)F)c2)c1=O [CBK106580] | 121.032
N/C(=N\OC(=O)c1ccccc1CCc1ccccc1)c1cccnc1 [CBK268188] | 59.3112
COc1ccc(-c2cnc3[nH]c(=O)n(CCCN4CCOCC4)c3n2)c(OC)c1OC [CBK064249] | 72.0209
COc1cccc(Oc2nccnc2-c2cccs2)c1 [CBK107059] | 76.8361
CCn1c(SCC(=O)Nc2ccccc2[N+](=O)[O-])nnc1-c1cc(Br)ccc1O [CBK268201] | 102.666
CC(=O)NC(c1nccs1)C1CCCN(C(=O)C2CCCC2)C1 (stereo not shown) [CBK284966] | 101.606
OCCCCn1c(-c2cccnc2)n[nH]c1=S [CBK288365] | 56.4422
Cc1ccc(-c2ncc(OCCC(C)C)nc2N)cc1C [CBK145145] | 75.1467
CCOC(=O)NC(=S)NC(=O)C(C)(C)C [CBK020037] | 70.4106
COc1cccc(C(=O)N2CCC(NC(=O)c3ccc(C(F)(F)F)cc3)CC2)c1 [CBK155022] | 100.425
CCN1C(=O)COC[C@@H]1[C@H](O)c1ccc(NC(=O)c2ccco2)cc1 [CBK289695] | 104.224
Cc1ccc(N2C(=O)c3ccccc3C2=O)cc1 [CBK113243] | 87.2065
Cc1cccc(N2CCN(C(=O)C3CCN(Cc4cccc(OCc5ccccc5)c4)CC3)CC2)c1C [CBK264328G] | 65.8861
Cc1ccccc1C1(O)CCN(CC(O)c2ccc(F)cc2)CC1 (stereo not shown) [CBK282471] | 127.948
Cc1ccc(C)c(C(=O)C2=C(O)C(=O)N(CCN(C)C)C2c2cccc(Cl)c2)c1 (stereo not shown) [CBK265495] | 113.91
CSCCN1CCC2(CC1)CN(CC(N)=O)c1ccccc12 [CBK126801] | 78.4414
O=C(O)CN1C(=O)C(=O)/C(=C(O)\C=C\c2ccccc2)C1c1ccccc1 (stereo not shown) [CBK286551] | 80.4234
Cn1c2ccccc2c2nnc(SCCc3ccccc3)nc21 [CBK267986] | 83.4872
O=C(Cn1cnnn1)N1CCc2ccccc21 [CBK200367] | 103.068
O=C(Nc1cccnc1)c1cc(S(=O)(=O)N2CCOCC2)ccc1Br [CBK270101] | 89.2984

SMILES | % of control remaining
O=C(CCn1c(=O)oc2cc(Cl)ccc21)NCc1ccco1 [CBK269857] | 55.5936
COc1ccc(OC)c(-n2c(SCC(=O)N3CCC(C(=O)O)CC3)nc3ccccc3c2=O)c1 [CBK296981] | 100.195
COC(=O)c1cc(NC(=O)NCCC2=CCCCC2)cc(C(=O)OC)c1 [CBK044120] | 55.7287
O=C(c1ccc(N2CCCC2)cc1)N1CCc2sccc2C1c1ccco1 (stereo not shown) [CBK285707] | 89.0314
COCCNc1cc(-c2ccncc2)ncn1 [CBK037729] | 97.5618
Cc1ccccc1OCc1nn2c(COc3ccccc3)nnc2s1 [CBK267230] | 71.7008
CC(=O)NCCSc1nc2ccccc2nc1C(F)(F)F [CBK105303] | 107.877
Cc1c(CN2CCC(CO)C2)cnn1Cc1ccccc1 (stereo not shown) [CBK282113] | 84.8487
CC(Oc1ccc(C(C)(C)C)cc1)C(=O)Nc1nnc[nH]1 (stereo not shown) [CBK267431] | 106.585
Cc1cccc(-c2ccc3c(c2)C(=O)N2CC[C@H](NC(=O)c4cnccn4)[C@H]2C(=O)N3)c1C [CBK289348] | 97.5191
COc1ccc2ncc(C(=O)O)c(Nc3ccccc3C)c2c1 [CBK269522C] | 101.883
O=C(Nc1cccnc1)N1CCCC(CO)C1 (stereo not shown) [CBK156068] | 84.6598
N#Cc1c(NC(=O)CN2CCCCC2)sc2c1CCCC2 [CBK261619] | 105.724
FC(F)Oc1ccc(NC(=S)NCCN2CCOCC2)cc1 [CBK028000] | 77.9882
CN(C)S(=O)(=O)c1ccc(C(=O)Nc2ccccc2O)cc1 [CBK267809] | 105.655
O=C1CCCCCC1C(Nc1ccc2ccccc2c1)c1cccnc1 (stereo not shown) [CBK293919] | 86.0239
CCn1cc(CN2CCOC(c3cccc(-c4ccc(OC)cc4)n3)C2)c(C)n1 (stereo not shown) [CBK286250] | 113.818
COc1cccc(CNc2ccc(N3CCOCC3)cc2)c1OCc1ccccc1F [CBK074406] | 44.0052
CCCC(=O)c1ccc(S(=O)(=O)N2CCCN(Cc3c(C)[nH]c(C(=O)OCC)c3C)CC2)cc1 [CBK062947] | 87.9917
CN(C(=O)c1ccc2c(c1)NC(=O)CS2)c1ccccc1 [CBK296612] | 87.9012
CCOc1ccc(CN(C)CC(=O)Nc2cc(C)no2)cc1 [CBK305605] | 20.5513

SMILES | % of control remaining
CC(C)(C)OC(=O)NC1CCC(NCc2ccncc2)CC1 (stereo not shown) [CBK056688] | 82.0274
Cc1ncc(-c2ccc3ccccc3c2)s1 [CBK019439B] | 108.499
COc1cc(C(=O)N2CCC3(CC2)CC(=O)c2ccc(C)cc2O3)cc(-c2ccc(OC)c(OC)c2)c1 [CBK168282] | 121.832
COc1ccccc1C(=O)Nc1ccccc1N1CCN(C)CC1 [CBK267938] | 94.2554
CCNc1n[nH]c(N)c1-c1nc(-c2ccc(OC)cc2)no1 [CBK288557] | 94.3577
COc1cc(S(=O)(=O)NCCCn2ccnc2)ccc1Cl [CBK269186] | 95.3192
O=C(NC1(C#Cc2cnc3ccccc3c2)CCCCC1)C1CCCO1 (stereo not shown) [CBK283085] | 93.1033
O=S(=O)(NCCN1CCCC1)c1cccc2nsnc12 [CBK261132] | 98.5012
Cc1c(CCC(=O)N2CCCC(C(=O)O)C2)c(=O)oc2c(C)c(O)ccc12 (stereo not shown) [CBK286764] | 92.1105
CC1=NN(c2ccc([N+](=O)[O-])cc2)C(=O)/C1=C/NCCN1CCN(C(=O)c2ccc(F)cc2)CC1 [CBK262920] | 73.1541
O=C(Nc1ccc(S(=O)(=O)Nc2nccs2)cc1)c1cc(-c2cccnc2)nc2ccc(Cl)cc12 [CBK267721] | 89.8133
S=c1[nH]nc(Nc2ccccc2)n1-c1ccccc1 [CBK026332] | 116.818
NCCCNCCOc1ccc(Cl)c(Cl)c1 [CBK268631C] | 62.3109
Cc1onc(-c2ccccc2)c1CNC(=O)c1cccnc1 [CBK144100] | 84.7555
Fc1cccc2sc(Nc3nc(-c4ccccn4)cs3)nc12 [CBK287479] | 62.947
CCOC(=O)c1cccnc1-c1ccc(OC)c(OC)c1 [CBK149240] | 92.0264
CCN(CC)S(=O)(=O)c1ccc(Cl)c(C(=O)Oc2cccc3cccnc23)c1 [CBK263205] | 104.577
N#Cc1c(NC(=O)C(=O)NCc2cccnc2)sc2c1CCCC2 [CBK269485] | 125.099
CN1CCC[C@H]1C(=O)Nc1nc2c(s1)C(=O)CC(C)(C)C2 [CBK144101] | 75.9661
CC(CN1CCCCC1)OC(=O)COc1ccc(F)cc1 (stereo not shown) [CBK058066C] | 110.771
CCOc1ccc(-c2cncc(NC3CCC(O)CC3)n2)cc1 (stereo not shown) [CBK065877] | 76.2308

SMILES | % of control remaining
COc1ccc(-c2ccccc2CC2(C(=O)NCc3cccs3)CCOCC2)cc1 [CBK286429] | 112.732
Nc1cccc(-c2nc(-c3cncnc3)cnc2N)c1 [CBK063907] | 103.165
O=C(O)C1CCCN(C(=O)NCc2ccc3c(c2)OCO3)C1 (stereo not shown) [CBK161346] | 75.4897
CCCC(=O)N1CCn2c(nnc2-c2cncc(Br)c2)C1 [CBK304761] | 90.0716
COc1cc2[nH]c(=S)n3nc(-c4ccncc4)nc3c2cc1OC [CBK288559] | 98.2775
Cc1ccc(-c2nnc(C3CCCN(C(=O)C4CC4)C3)o2)s1 (stereo not shown) [CBK285516] | 113.405
O=[N+]([O-])c1ccc(Oc2cccc3cccnc23)c(C(F)(F)F)c1 [CBK002739] | 90.8179
O=C(NC1CCCC1)c1ccc(-c2cnc3[nH]c(=O)n(CCCN4CCOCC4)c3n2)cc1 [CBK064829] | 80.9837
Cn1nccc1C(=O)NC(Cc1cccs1)c1nccs1 (stereo not shown) [CBK285055] | 97.5124
O=C1c2ccccc2CN1c1cccc2ccccc12 [CBK113190] | 94.0112
CCN1CC2(CCN(Cc3cccc(-c4ccccn4)c3)CC2)CC1=O [CBK307399] | 52.9917
CN(C)c1cccc(-c2cncc(NCCCN3CCOCC3)n2)c1 [CBK065635] | 127.305
CN(C)C(=O)c1cccc(NC(=O)C2CCCCC2)c1 [CBK304515] | 45.6537
Cc1nccn1CC1(O)CCN(C(=O)C2(c3ccccc3)CC2)CC1 [CBK284659] | 85.2744
O=C(O)c1ccccc1C1Nc2ccccc2S(=O)(=O)N1Cc1ccccc1 (stereo not shown) [CBK286587] | 77.7192
COc1cccc(CN2CCCN(c3nccc(OCC4COc5ccccc5O4)n3)CC2)c1OC (stereo not shown) [CBK115476T] | 95.3443
OC(CNc1nccnc1-c1ccco1)COc1ccccc1 (stereo not shown) [CBK036862] | 128.421
O=C(Nc1ccccc1C(=O)O)c1ccc(S(=O)(=O)N2CCCCC2)cc1 [CBK265174] | 78.5348
CCc1ccc2c(c1)C(CCNC(=O)c1sccc1C)C(=O)N2 (stereo not shown) [CBK306459] | 94.8011
